PubChem BioAssay (NCI)
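All cell lines were grown in 96-well plates and treated with compound for 48 hours. GI50 is the concentration that inhibits growth by half. TGI marks complete inhibition of growth.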 Square brackets hold non-standard residues; d marks the D form. Peptide text beside a SMILES is read from it. * marks the point of attachment. Decanoyl = CCCCCCCCCC(=O)*; Leu(ol) = CC(C)C[C@H](N)CO; Iva = CC[C@](C)(N)C(=O)O; Aib = CC(C)(N)C(=O)O

system: NCI-H322M lung; assay: NCI tumour cell line growth inhibition, 48 h

First: C#Cc1ccc(NC(=O)c2ccc(/C=C/C(=O)c3nccn3C)cc2)c(F)c1
Second: CCOc1ccc(C(=O)Nc2ncc(Cc3ccc(F)cc3)s2)cc1
The GI50 of the first is 2.5-fold higher: 1410 nM for the first, 575 nM for the second.

Compared with CCCCCCCCCC(=O)NC(C)(C)C(=O)N1CCC[C@H]1C(=O)N[C@@H](CC(C)C)C(=O)N[C@@](C)(CC)C(=O)N[C@@H](CCC(N)=O)C(=O)N[C@H](CCC(N)=O)C(=O)NC(C)(C)C(=O)NC(C)(C)C(=O)N[C@@H](CCC(N)=O)C(=O)N[C@H](CC(C)C)C(=O)N[C@H](CO)CC(C)C (Decanoyl-[Aib]PL[Iva]Q[dQ][Aib][Aib]Q[dL][Leu(ol)]), Oc1ccc(CSc2nnc(-c3ccc(Cl)cc3)n2-c2ccccc2)c2cccnc12 is 1.6-fold lower in GI50: 1740 nM for the first, 1060 nM for the second.

C#Cc1ccc(NC(=O)c2ccc(/C=C/C(=O)c3nccn3C)cc2)c(F)c1 and CCOc1ccc(C(=O)Nc2ncc(Cc3ccc(F)cc3)s2)cc1 cannot be ordered by TGI: > 50000 nM for the first, > 100000 nM for the second.

Going from CCCCCCCCCC(=O)NC(C)(C)C(=O)N1CCC[C@H]1C(=O)N[C@@H](CC(C)C)C(=O)N[C@@](C)(CC)C(=O)N[C@@H](CCC(N)=O)C(=O)N[C@H](CCC(N)=O)C(=O)NC(C)(C)C(=O)NC(C)(C)C(=O)N[C@@H](CCC(N)=O)C(=O)N[C@H](CC(C)C)C(=O)N[C@H](CO)CC(C)C (Decanoyl-[Aib]PL[Iva]Q[dQ][Aib][Aib]Q[dL][Leu(ol)]) to Oc1ccc(CSc2nnc(-c3ccc(Cl)cc3)n2-c2ccccc2)c2cccnc12, the TGI rises from 3310 nM to > 100000 nM.
